# Data as given in PubChem BioAssay AID686979 (National Center for Advancing Translational Sciences (NCATS), 2013).
# “And” between values parts separate entries of the source, which are not always exact repeats. Equal values may be shown once. The whole screen tested about 420,000 compounds, of which about 50,000 (12%) were called active. The inconclusive results got no clear call from the source; some entries with a clear call stand among them for comparison. The call rests on the fitted dose curve; in most records, active means well fitted inhibition curve with a large enough effect; inconclusive means small, poorly fitted or top-dose-only effect; inactive means flat fitted curve, though single readings scatter. Potencies beside an inconclusive call are fits to weak or partial responses and may not hold up.
# Assay: qHTS for Inhibitors of human tyrosyl-DNA phosphodiesterase 1 (TDP1): qHTS in cells in presence of CPT; further: nearly all actives have a fitted effect of over 55% in size
# Details: chicken DT40 Tdp1-/-;hTDP1 cells + 20 nM CPT, ATP luminescence, 48 h; activity change, negative = growth inhibition: at 46.2 µM (top of the series)
# Procedure, shortened: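 Cell growth measured by CellTiter-Glo luminescence after a minimum 48 h, 37 C compound exposure with 20 nM CPT in Tdp1-knockout DT40 cells stably expressing hTDP1, seeded 400/well; qHTS titration format.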
# On the % scale 0 is the no-effect control and ±100 the full control effect; potency means the concentration at half of the fitted maximal effect; tags describe the fitted curve by direction and shape.
SMILES,"activity change, negative = growth inhibition",Potency
CC(=O)N1CCc2cc(S(=O)(=O)NC(C(=O)Nc3ccc4c(c3)OCCO4)C(C)C)ccc21 (configuration not stated),inactive: -1.24%,
C=C(C)C1CC=C(C)/C(=N\NC(=O)CNc2cccc3ccccc23)C1 (configuration not stated),inactive: -11.8%,
CSc1ccc(Cn2c(C)c(C(=O)NCc3ccc(F)cc3)sc2=O)cc1,,active: 23.1 µM
Cc1ccc2ccccc2c1C(O)c1ncc(-c2ccccc2)[nH]1 (configuration not stated),,"inconclusive: 29.1 µM [inhibitor, single point]"
Cc1cccc(C(=O)OCC(=O)Nc2sc3c(c2C#N)CCC3)c1,,"inconclusive: 23.1 µM [inhibitor, single point]"
O=[N+]([O-])c1cc(C=NN2CCCCCC2)ccc1Cl,inactive: -20.4%,
CC(=O)N(CCCc1ccc(C(C)(C)C)cc1)CCCN(C)C,,active: 14.6 µM
COc1ccc(Cl)c(N2CCN(CCCNC(=O)Nc3ccc(C)cc3)CC2)c1,,"inconclusive: 29.1 µM [inhibitor, single point]"
Cn1c(C(=O)NCc2ccc3c(c2)OCO3)cc2sccc21,inactive: 1.81%,
Cc1ccc2c(Cl)c(C(=O)Nc3ccc4c(c3)OCO4)sc2c1,,"inconclusive: 13 µM [inhibitor, partial curve]"
O=C(Nc1cccnc1Cl)c1cc(-c2ccc(Cl)cc2)on1,,inactive
CC(=O)Oc1ccc2nc(/C=C/c3ccccc3)oc(=O)c2c1,inactive: 3.12%,
Cc1ccc(-c2nn(-c3ccccc3)cc2/C=N/NC(=O)c2ccncc2)o1,,"inconclusive: 29.1 µM [inhibitor, single point]"
O=C(CSc1ncnc2sc3c(c12)CCCC3)c1ccco1,,"inconclusive: 25.9 µM [inhibitor, single point]"
COc1ccc(C(=O)N2CCc3cc(OC)c(OC)cc3C2)cc1OC,,"inconclusive: 29.1 µM [inhibitor, single point]"
COc1ccc(OC)c(Nc2nc(N)nc(CSc3nnc(N)s3)n2)c1,inactive: -11.5%,
CC1CCN(S(=O)(=O)c2cc(C(=O)NCc3ccc(F)cc3)n(C)c2)CC1,,"inconclusive: 29.1 µM [inhibitor, single point]"
COc1cccc(COC(=O)c2ccc(-c3nnn(Cc4ccccc4)n3)cc2)c1,inactive: -12.7%,
Cc1c(C(=O)O)oc2ccc(S(=O)(=O)NCc3ccccc3)cc12,inactive: -0.455%,
COc1ccc(-c2noc(CN(C(=O)c3ccoc3C)C(C)C)n2)cc1,inactive: -25.8%,
COCCOC(=O)C(C#N)c1nc2ccccc2nc1N1CCN(Cc2ccccc2)CC1 (configuration not stated),,active: 23.1 µM
CC(C)c1ccc(NC(=O)CNS(=O)(=O)c2ccc(F)cc2)cc1,,active: 16.4 µM
COC(=O)c1[nH]c2ccc(F)cc2c1NC(=O)Nc1ccc(OC)cc1,,"inconclusive: 8.2 µM [inhibitor, partial curve]"
CCOc1ccccc1NC(=O)CSc1nnnn1-c1ccccc1,,"inconclusive: 18.4 µM [inhibitor, single point]"

SMILES,"activity change, negative = growth inhibition",Potency
O=C(Nc1ccc(CN2CCOCC2)cc1)c1cccs1,inactive: -1.27%,
CC(c1ccccc1)N1CCn2c(nc3cc(NC(=O)c4cccs4)ccc32)C1 (configuration not stated),,active: 25.9 µM
CC(NC(=O)c1ccco1)c1nnc2n1CCN(Cc1ccc(N3CCCC3)cc1)CC2 (configuration not stated),inactive: -4.19% [at 9.04 µM],
O=C(c1ccccc1)N1CCN(CC#CC2(O)CCCCC2)CC1,,"inconclusive: 6.51 µM [inhibitor, single point]"
CCCc1cc(C(=O)N2CCN(C(c3ccccc3)c3ccccc3)CC2)no1,,"inconclusive: 29.1 µM [inhibitor, single point]"
C/C(=N/NS(=O)(=O)c1ccc(C)cc1)c1c[nH]c2ccccc12,inactive: -6.87%,
COc1ccccc1-c1c(C)nn2c(N3CCC(C)CC3)cc(C)nc12,inactive: 0.342%,
CC(=O)Nc1ccc(NC(=O)C2CCCCN2S(=O)(=O)c2ccc(C(C)(C)C)cc2)cc1 (configuration not stated),,active: 23.1 µM
CNC(=O)c1cc2n(n1)CCCN(Cc1ccc(F)cc1)C2=O,,"inconclusive: 29.1 µM [inhibitor, single point]"
CC(NCc1ccccc1O)C12CC3CC(CC(C3)C1)C2 (configuration not stated),,"inconclusive: 29.1 µM [inhibitor, single point]"
O=C1C(c2ccc(F)cc2)N(CCc2ccccc2)C(=O)CN1C1CCCCC1 (configuration not stated),,"inconclusive: 9.2 µM [inhibitor, partial curve]"
Cc1cccc(C)c1NC(=O)CN(C)C(=O)c1ccccc1Sc1ccccc1C#N,,"inconclusive: 29.1 µM [inhibitor, single point]"
CCOc1ccccc1CNC(=O)C1CCN(c2nn3c(=O)cc(C)nc3s2)CC1,inconclusive: -33.2% [inhibitor],
CCOC(=O)c1c2n(c3ccc(O)cc13)CCCCC2,,"inconclusive: 29.1 µM [inhibitor, single point]"
Cc1cnc(C)c(Nc2nc(C(N)c3ccccc3)cs2)n1 (configuration not stated),,"inconclusive: 18.4 µM [inhibitor, single point]"
CCC1(OC(=O)CN(C)C)C(=O)OCc2c1cc1n(c2=O)Cc2cc3c(N)cccc3nc2-1 (configuration not stated),,active: 0.164 µM
O=C(O)c1nn(-c2ccccc2)nc1-c1nn(-c2ccccc2)nc1C(=O)O,inactive: -7.1%,
Cc1ccc(C(=O)c2ccccc2C(=O)OCC(=O)NCCc2ccc(Cl)cc2Cl)cc1,,"inconclusive: 25.9 µM [inhibitor, single point]"
Cc1ccc(-c2nnn(CC(=O)N(Cc3ccco3)C(C(=O)NC(C)(C)C)c3ccc(C)o3)n2)o1 (configuration not stated),,active: 16.4 µM
CC(=O)COc1coc(CN2CCN(c3ccc(F)cc3)CC2)cc1=O,inactive: 1.92%,
CCCCC1(C)NC(=O)c2c(C)sc(C(=O)OCC)c2N1 (configuration not stated),,"inconclusive: 29.1 µM [inhibitor, single point]"
COc1ccccc1C(=O)NC(=O)COC(=O)c1ccc([N+](=O)[O-])cc1Cl,inactive: 11.9%,
CC(=O)c1ccc(NC(=O)CCc2c(C)nn(-c3ccc4nncn4n3)c2C)cc1,,"inconclusive: 29.1 µM [inhibitor, single point]"
CCOc1ccc(CCNS(=O)(=O)c2c(C)nc3sc(C)cn3c2=O)cc1OCC,inactive: -3.08%,

SMILES,"activity change, negative = growth inhibition",Potency
CC1(C)OC(=O)C(=Cc2ccc(-c3ccc(S(N)(=O)=O)cc3)o2)C(=O)O1,,"inconclusive: 18.4 µM [inhibitor, single point]"
O=C(OCC(=O)N1CCOCC1)c1cccc(F)c1,inactive: 4.18%,
CC(=O)c1ccc(OC2(C)CCN(Cc3ccc(OC(F)(F)F)cc3)C2)cc1 (configuration not stated),,"inconclusive: 29.1 µM [inhibitor, single point]"
O=C(Nc1ccccc1-c1ccccc1)c1cccs1,,"inconclusive: 18.4 µM [inhibitor, single point]"
CC(=O)NNc1cc(C)nc(N)n1,inactive: 3%,
Cc1cccc(C)c1-n1c(C)cc(/C=C2\NC(=O)NC2=O)c1C,,"inconclusive: 20.6 µM [inhibitor, partial curve]"
O=C(c1ccccc1)N1CCN(c2ccc([N+](=O)[O-])c(NCc3ccco3)c2)CC1,,"inconclusive: 29.1 µM [inhibitor, single point]"
CC(C)C(OC(=O)C1=Cc2ccccc2OC1)C(=O)NC1CCCC1 (configuration not stated),,"inconclusive: 29.1 µM [inhibitor, single point]"
CCC1CN(C(=O)N2CCC(C(=O)NCCOC)CC2)c2ccccc2O1 (configuration not stated),inactive: -13.7%,
Cc1ccccc1OCc1nnc(SCC(=O)Nc2ccc3nc(SCC(=O)Nc4ccccc4)sc3c2)n1C,,"inconclusive: 29.1 µM [inhibitor, single point]"
O=C1/C(=C\c2ccc3ccccc3c2)CCCc2ccccc21,,"inconclusive: 25.9 µM [inhibitor, single point]"
CC(C)(C)NC(=O)[C@H]1CC[C@H]2[C@@H]3CC=C4C=C(C(=O)O)CC[C@]4(C)[C@H]3CC[C@]12C,,"inconclusive: 33.5 µM [inhibitor, single point]"
O=C(CCCSc1nc(-c2ccco2)cc(C(F)(F)F)n1)Nc1ccc2c(c1)OCO2,,"inconclusive: 29.1 µM [inhibitor, single point]"
C#CCn1cc(/C=N/NC(=O)COc2cccc3cccnc23)c2ccccc21,,"inconclusive: 29.1 µM [inhibitor, single point]"
CCOC(=O)c1cnc(SC)nc1Oc1cccc(NC(=O)c2ccc(Cl)cc2)c1,,"inconclusive: 18.4 µM [inhibitor, single point]"
COc1cc(/C=C/C(=O)N2CCN(Cc3ccccc3)CC2)cc(OC)c1OC,inactive: -72.8%,
CCOC(=O)C(C)(C)N(Cc1cccc(C)c1)S(=O)(=O)c1ccc(Cl)c([N+](=O)[O-])c1,,active: 23.1 µM
CC(C)(C)NC(=O)c1cccc(NC(=O)Cc2ccc(Br)cc2)c1,inconclusive: -33.7% [inhibitor],
CC(C)c1ccc(NS(=O)(=O)c2ccc3[nH]c(=O)ccc3c2)cc1,,"inconclusive: 29.1 µM [inhibitor, single point]"
COC(=O)c1ccc(Cn2nc(-c3ccc(C)c(C)c3)ccc2=O)cc1,,"inactive and inconclusive: 29.1 µM [inhibitor, single point]"
Cc1nc2cc(NC(=O)N3CCC(c4ccccc4)C3)ccc2n1C (configuration not stated),,"inconclusive: 5.8 µM [inhibitor, partial curve]"
COc1ccc([C@H]2Cc3cc(O)cc(O)c3C(=O)O2)cc1O,inactive: -0.084%,
CN(CCOc1ccccc1)C(=O)c1ccc(Cl)c(S(=O)(=O)N2CCCCC2)c1,,"inconclusive: 18.4 µM [inhibitor, single point]"
Cc1cc(-c2ccc(N=Nc3c(S(=O)(=O)O)cc4cc(S(=O)(=O)O)cc(N)c4c3O)c(C)c2)ccc1N=Nc1c(S(=O)(=O)O)cc2cc(S(=O)(=O)O)cc(N)c2c1O,,active: 9.44 µM
